From ChEMBL document CHEMBL4888484, “Replenishing the malaria drug discovery pipeline: Screening and hit evaluation of the MMV Hit Generation Library 1 (HGL1) against asexual blood stage Plasmodium falciparum ,using a nano luciferase reporter read-out” (2022)
The campaign covered roughly 150,000 compounds. About 540 (0.36%) showed an effect of 50% or more. The list shows a part of the results.

Tested on: Plasmodium falciparum
Experiment: Primary screen in NF54 nanoGlo assay, in single point, at 2uM, 72h; a lower Z score goes with more inhibition
Assay type: functional, Erythrocyte
Settings: timepoint 72 hour

Compound | % Inhibition [%] | Z score
COc1ccc(-[n+]2c(-c3ccccc3)cn3c2CCC3)cc1 | 79 | -11.37
Cn1cc(C#N)cc1C(=O)N1CCC2(CCC(=O)N(C[C@H]3CCCO3)C2)CC1 | -7 | 0.86
CCS(=O)(=O)C[C@H](C)N(C)c1cc(C#N)nc(C)n1 | -2 | 0.22
C=CCCCN1CCC2(CC1)CCN(C(=O)OC(C)(C)C)CC2 | -14 | 1.5
c1ccc(-c2c3c(cc4ccccc24)C[N+]2(CCOCC2)C3)cc1 | -3 | 0.48
Cc1cccc(COc2cccc(CC(=O)N3CC[C@@H](N)C3)c2)c1 | -4 | 0.41
Cc1oc(Br)cc1C(=O)N1CCC[C@H](CCO)CC1 | -3 | 0.59
CCOc1nnc(CN2CCC[C@H]2C(=O)Nc2ccc(OC)cc2)s1 | -1 | 0.17
CC(NC(C)C1CC2CCC1C2)C(=O)NC(=O)NC1CC1 (stereo not drawn) | -4 | 0.72
CC(C)(CNC(=O)[C@]1(O)CCOC1)C1CCC1 | -6 | 0.77
O=S(=O)(c1ccc2c(c1)OCCCO2)N(Cc1ccccc1)CC1CCC1 | -2 | 0.24
COC(=O)c1cc(C2CC2)nc2c1c(=O)n(CC(=O)N1CCCC[C@@H]1C)c(=O)n2-c1ccccc1 | -13 | 1.7
C[C@H](N(C)C(=O)C12CC(C1)C2)C(C)(C)O | -15 | 2.78
Cc1noc(C)c1CN1CCc2c(C(=O)NC[C@H](C)N3CCCC3)csc2C1 | 0 | -0.02
Cc1oc(C)c(C(=O)Nc2cccc3c2C(=O)NC3)c1Br | -7 | 0.74
CN1CCC2(CC1)CN(C(=O)C1(O)CC(C)(C)C1)Cc1ccccc12 | -1 | 0.09
CN(CCc1ncon1)C(=O)[C@]1(c2ccccc2)CC1(C)C | 0 | -0.03
O=C(O)Cn1ccc(NC(=O)C2CCc3ccccc3CC2)n1 | 0 | 0.01
CC(=O)c1ccc(-c2cc(N)nc(N(C)C)n2)cc1 | -3 | 0.48
Cn1cc(CN2CCC[C@H](C(N)=O)C2)c(-c2cccs2)n1 | 6 | -0.83
NC[C@H]1CCCN1C(=O)c1cc(O)nc2ccc(Br)cc12 | -3 | 0.41
c1ccc(CCCc2nnnn2Cc2ccon2)cc1 | -2 | 0.22
CC1=CCN(C(=O)Nc2cccc(OCC(=O)N3CCOCC3)c2)CC1 | 6 | -0.85
O=C(c1ccc(-c2ccsc2)cc1)N1CCC(N2C(=O)COC2=O)CC1 | -17 | 3.17
N[C@@H](Cc1c(F)cccc1Cl)C(=O)O | -2 | 0.19
CC(C)C[C@@H](CN(C)C)NC(=O)NCc1nc(-c2cccs2)n[nH]1 | 3 | -0.37
Cc1c(CNC2CCCCCC2)c(C(=O)O)c(C)n1Cc1c(F)cccc1Cl | 5 | -0.72

Compound | % Inhibition [%] | Z score
N#Cc1cccc(N2CCC3(CC2)C[C@H](c2ccccc2)CN(C2CC2)C3)n1 | -8 | 1.65
CC[C@H](CNC(=O)NCc1n[nH]c(=O)[nH]1)Cc1ccccc1 | -5 | 0.55
CC1CN(CCCN2CC(C)OC(C3CC3)C2)CC(C2CC2)O1 (stereo not drawn) | -4 | 0.42
c1ccc(N2CCN(Cc3cccn3-c3nnc(N4CCCCC4)s3)CC2)nc1 | -13 | 1.31
CCCN1C(=O)c2c(C(=O)NCc3ccc(OC)cc3OC)ncn2C[C@@]1(C)C(=O)NC1CCCC1 | -10 | 1.96
CC(C)(Oc1ccc(Cl)cc1)C(=O)N1CC(c2nc(-c3ccccn3)no2)C1 | -15 | 2.18
CS(=O)(=O)Nc1cccc(Cl)c1Br | 7 | -0.84
CC(C)(C)NC[C@H](O)COc1c(F)cc(Br)cc1F | 10 | -1.27
Cn1ccc2ccc(CN3CCn4nc(CNc5ncccn5)cc4C3)cc21 | 0 | -0.07
CCC[C@@H](C(=O)NCCN1CCOCC1)n1c(Cc2ccccc2Cl)nc2cc(C)c(C)cc21 | -9 | 1.61
O=C(NCC1(O)CCC1)N[C@@H](Cc1ccccc1)C1CC1 | -16 | 1.88
CC(Oc1cccnc1)C(=O)N1CCOCC1C1CC1 (stereo not drawn) | -1 | 0.1
CC1CCC(N(C(=O)[C@H]2CCCN(C(=O)c3ccc(Cl)cc3)C2)C2CC2)CC1 (stereo partly drawn) | -7 | 1.21
Fc1ccc(-c2nc3c(cnn3C3CCCC3)[nH]2)cc1 | -6 | 0.81
Cc1ccc(C(=O)N(C)Cc2ccc(Br)o2)cn1 | -17 | 2.32
CCN1CCO[C@H](C(=O)NCc2ccc(Cn3cccn3)cc2)C1 | 6 | -0.7
COC(=O)c1ncn2c1C(=O)N(Cc1cccc(OC)c1)[C@](C)(C(=O)NC1CCCC1)C2 | -9 | 1.32
O=C1NCCN1C(=O)N1CCO[C@H](c2ccccc2)C1 | -2 | 0.37
CCNC(=O)CNS(=O)(=O)c1cc(N(C)C)ccc1Br | -1 | 0.08
O=C(O)C1CC=CCC1C(=O)Nc1nc(-c2cccc3ccccc23)cs1 (stereo not drawn) | -30 | 3.54
O=C(CC1(C(=O)O)CCCC1)Nc1ccc2[nH]ncc2c1 | -1 | 0.11
Cc1ccccc1CC(=O)N1CCc2[nH]nc(C(=O)N3CCN(c4ccccc4)CC3)c2C1 | 7 | -0.87
C[C@H]1CCCCN1C(=O)C1CCN(c2ncnc3c2nc2n3CCCCC2)CC1 | -10 | 1.62
O=C(NCCN1C(=O)CCCC1=O)C1CC1C1CC1 (stereo not drawn) | -15 | 2.28
Cc1ccnn1CC(=O)N1CCC(O)(CNc2ncc(C#N)cc2Cl)CC1 | 13 | -1.5
Cn1cc(-c2nccnc2CNS(=O)(=O)c2cccs2)cn1 | -8 | 0.96
Cn1nc(C2CCCCC2)cc1NC(=O)C[C@H]1CCCS(=O)(=O)C1 | 16 | -1.89
